Screen size: about 310,000 compounds; about 14,000 (4.5%) showed an effect of 50% or more. The effect is printed as a negative number. This is one part of the list. Where a SMILES comes first, the peptide text is derived from it. The star is where a group is joined. Boc = CC(C)(C)OC(=O)*
molecular target: human ether-à-go-go-related gene (hERG) potassium channel (human, UniProt Q12809); assay: primary screen, population patch clamp on CHO cells stably expressing hERG
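Also: peak tail current of the secondary pulse compared with the same well before compound.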

Sequence of human ether-à-go-go-related gene (hERG) potassium channel (Q12809 whole entry, looked up): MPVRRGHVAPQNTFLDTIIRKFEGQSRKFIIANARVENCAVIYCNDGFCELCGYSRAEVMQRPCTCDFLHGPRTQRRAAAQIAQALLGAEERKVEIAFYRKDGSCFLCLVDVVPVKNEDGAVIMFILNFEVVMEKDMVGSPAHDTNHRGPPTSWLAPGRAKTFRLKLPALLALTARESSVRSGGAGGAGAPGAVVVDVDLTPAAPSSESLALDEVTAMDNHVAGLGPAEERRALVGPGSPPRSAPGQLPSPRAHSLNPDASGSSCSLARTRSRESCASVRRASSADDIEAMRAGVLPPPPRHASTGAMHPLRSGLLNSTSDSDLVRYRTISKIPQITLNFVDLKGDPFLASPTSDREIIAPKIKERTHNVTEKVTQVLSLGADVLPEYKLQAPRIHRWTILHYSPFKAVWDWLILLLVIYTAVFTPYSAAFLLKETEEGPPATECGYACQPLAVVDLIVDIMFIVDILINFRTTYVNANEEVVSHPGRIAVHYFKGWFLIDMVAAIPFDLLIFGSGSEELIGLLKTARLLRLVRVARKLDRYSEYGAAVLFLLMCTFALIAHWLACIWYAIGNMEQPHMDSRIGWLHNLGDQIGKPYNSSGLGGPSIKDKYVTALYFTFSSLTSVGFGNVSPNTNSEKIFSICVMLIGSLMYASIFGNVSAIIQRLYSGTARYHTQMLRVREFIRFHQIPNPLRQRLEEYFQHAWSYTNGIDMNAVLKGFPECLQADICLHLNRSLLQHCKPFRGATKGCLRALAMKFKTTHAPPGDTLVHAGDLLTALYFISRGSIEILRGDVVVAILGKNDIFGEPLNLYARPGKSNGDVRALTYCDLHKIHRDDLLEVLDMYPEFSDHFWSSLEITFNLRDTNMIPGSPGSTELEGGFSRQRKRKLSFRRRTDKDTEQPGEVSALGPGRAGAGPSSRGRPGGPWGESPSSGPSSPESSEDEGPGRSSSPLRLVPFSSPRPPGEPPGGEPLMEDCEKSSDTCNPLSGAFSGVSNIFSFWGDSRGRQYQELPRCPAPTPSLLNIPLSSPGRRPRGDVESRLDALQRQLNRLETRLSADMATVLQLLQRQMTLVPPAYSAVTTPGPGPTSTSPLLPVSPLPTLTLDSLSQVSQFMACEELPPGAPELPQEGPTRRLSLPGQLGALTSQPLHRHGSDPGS

| SMILES | hERG current change (%, negative = inhibition) at 10uM |
| --- | --- |
| O=C(/C=C/NNC(=O)c1cccc(Br)c1)c1cccc(Br)c1 | 15.6% |
| CCOC(=O)c1cccc(NC(=O)CSc2nc3cccnc3n2C)c1 | -37.8% |
| Cc1ccc(C(=O)/C=C/c2ccco2)c(O)c1 | 12.6% |
| Cc1ccc(C(C(=O)NC2CCCCC2)N(CC2CCCO2)C(=O)CNC(=O)c2ccco2)cc1 (stereo not drawn) | -19.1% |
| CCOC(=O)c1c(C)[nH]c(C(=O)COC(=O)COc2ccccc2C=O)c1C | -15.7% |
| Cc1csc(/C(C#N)=N/O)n1 | 10.2% |
| CCC(C)c1ccccc1NC(=O)c1cc(C)no1 (stereo not drawn) | 25.8% |
| O=C(O)c1c2c(nc3ccccc13)/C(=C/c1c(F)cccc1F)CCC2 | 17.3% |
| CCN(CC)S(=O)(=O)c1ccc(N2CCCC2)c(NS(=O)(=O)c2ccccc2)c1 | -7.76% |
| CC(C)(O)c1nnn(-c2ccccc2)c1C(F)(F)F | 8.31% |
| Cc1cccc(N2CCN(C(=O)CN3C(=O)C4CC=CCC4C3=O)CC2)c1C (stereo not drawn) | 12.3% |
| COc1ccc(/C(C)=N/NC(=O)CNC(=O)c2ccncc2)c(OC)c1 | 3.47% |
| O=S(=O)(c1ccc(=S)[nH]c1)N1CCCCCC1 | 13.4% |
| Cc1sc2ncnc(N3CCOCC3)c2c1C | -13.7% |
| Cc1c(C(=O)NCc2ccc(F)cc2)oc2ccc(S(=O)(=O)N3CCOCC3)cc12 | 1.64% |
| c1ccc(C[C@H]2CN=C(Nc3ccccc3)N2CC2CCC2)cc1 | -63% |
| COc1ccc(-n2c(=O)c3c4c(sc3n3c(=S)[nH]nc23)CCC4)cc1 | 14% |
| CCC1(c2ccccc2)NC(=O)N(CC(=O)NCc2ccc(F)cc2)C1=O (stereo not drawn) | 18.7% |
| O=C(Nc1cccc2c1CCCC2)c1ccc(Cl)c([N+](=O)[O-])c1 | 5.81% |
| Cc1nc(CCl)cc(=O)[nH]1 | 7.38% |
| COc1ccc2c(C)cc(N3CCN(Cc4ccccc4)CC3)nc2c1 | -29.6% |
| CCOC(=O)c1c(NC(=O)CSc2nnc(-c3c[nH]c4ccccc34)n2CCOC)sc2c1CCCC2 | 12.7% |

| SMILES | hERG current change (%, negative = inhibition) at 10uM |
| --- | --- |
| O=C(CCc1ccc(S(=O)(=O)NC2CCCCC2)cc1)Nc1ccccc1 | 14.6% |
| Cc1cc(COc2ccccc2O)on1 | 10.6% |
| CN(C)S(=O)(=O)N(CC(=O)Nc1cccc(F)c1)c1ccccc1 | -7.72% |
| Cc1nnc(NC(=O)CSc2nnc(CNC(=O)c3ccc(F)cc3)o2)s1 | 24.3% |
| Cc1cc(C)n2cc(CSc3ccc(Cl)cc3)nc2n1 | -64.9% |
| Cc1cc(OCC(=O)Nc2ccccc2N2CCOCC2)c(C(C)C)cc1Cl | 13.6% |
| O=C(Cc1ccccc1)NNS(=O)(=O)c1ccc(F)cc1 | 20.9% |
| CCNC(=S)/N=C(/Nc1ccc(OC)cc1)Nc1nc(C)cc(C)n1 | -4.84% |
| O=C(Nc1cc(=O)[nH]c(=O)[nH]1)c1cccc(Br)c1 | 21.9% |
| O=C(O)c1[nH]c2ccc(Cl)cc2c1CC(=O)N1CCN(C(=O)c2ccco2)CC1 | 18.4% |
| Cn1c(-c2ccc(CN3CCCCC3)o2)nc2ccccc21 | -40.2% |
| c1ccc(C(c2ccccc2)N2CCN(Cc3nnnn3C3CCCCC3)CC2)cc1 | 2.15% |
| Nc1c(C(O)(C(F)(F)F)C(F)(F)F)cc(C(O)(C(F)(F)F)C(F)(F)F)c2ccccc12 | 17.6% |
| O=C(CC1CC2CCC1C2)Nc1nc(-c2ccccn2)cs1 (stereo not drawn) | -23.6% |
| N=c1c2ccccc2nc2n1CCCCCCCCCCC2 | -62% |
| Cc1cnc(CN(C)C(=O)C2CCC(=O)N(CCc3cccc(F)c3)C2)[nH]1 (stereo not drawn) | 16.1% |
| CCCCSCCCNC(=O)c1cn(C)c2ccc(S(=O)(=O)N3CCCC3)cc2c1=O | 11.2% |
| O=C1CCCc2ccccc2N1Cc1ccc(Cl)cc1Cl | -18.2% |
| O=C(NCCCn1ccnc1)/C(=C\c1ccc(Br)cc1)NC(=O)c1ccccc1F | -74.3% |
| COc1cccc(C2=NOC(C(=O)Nc3cc(C)on3)C2)c1 (stereo not drawn) | -4.7% |
| CC(=O)N1c2ccccc2CCc2ccc(N)cc21.Cl | 4.59% |
| Cc1ccc(C)c(OCC(=O)Nc2ccc(C(=O)O)cc2NC(=O)COc2cc(C)ccc2C)c1 | 7.19% |

| SMILES | hERG current change (%, negative = inhibition) at 10uM |
| --- | --- |
| CC(C)NC(=S)N/N=C/c1ccc(N2CCOCC2)cc1 | 20% |
| COc1ccc(NC(=O)c2ccc(-c3ccccc3C(F)(F)F)o2)cc1 | 0.954% |
| Cc1cc(C)n(-c2nc(N(C)C)nc(N3CCOCC3)n2)n1 | -6.78% |
| O=C(CN1CCN(S(=O)(=O)c2ccc3ccccc3c2)CC1)NC(=O)NC1CCCCC1 | -0.0734% |
| O=C(Nc1ccc2c(c1)OCO2)[C@@H]1CCCN1S(=O)(=O)c1cccc2cccnc12 | -6.18% |
| O=c1c2c(O)cc(O)cc2oc2ccc(O)c(O[C@@H]3O[C@H](CO)[C@@H](O)[C@H](O)[C@H]3O[C@H]3O[C@H](CO)[C@@H](O)[C@H](O)[C@H]3O)c12 | 9.28% |
| CSc1ccccc1NC(=O)CSc1nncs1 | 33.9% |
| CN(CC(=O)Nc1ccc(Cl)c(Cl)c1)C(=O)CC1OC(=O)c2ccccc21 (stereo not drawn) | -70.3% |
| Cl.O=[N+]([O-])c1ccc(N2CCN(Cc3ccccc3)CC2)nc1 | -59% |
| COc1ccc(CNc2ccc(C(=O)O)cc2)cc1 | 14.1% |
| O=C(CN(C(=O)CCC(=O)Nc1nccs1)C1CCCC1)NCc1ccc2c(c1)OCO2 | -3.87% |
| CCOC(=O)CSc1nnc([C@H](C)NC(=O)OC(C)(C)C)o1 | 7.7% |
| Cc1ccc(OCCNC(=O)CCc2ccccc2)cc1C | -20.7% |
| COc1cc(Cl)c(C)cc1NC(=O)CSc1nnc(-c2ccco2)n1CC(C)C | -62.1% |
| Fc1ccccc1COc1ccc(C(=S)N2CCCC2)cc1 | 13% |
| COc1ccc(/C=C2/SC(=O)N(CCC(=O)Nc3ccccc3C(=O)O)C2=S)cc1 | 13.5% |
| Cc1ccc(NC2CCCN(C(=O)c3snnc3C)C2)cc1C (stereo not drawn) | 0.46% |
| CCn1c(-c2cc(-c3cccc(OC)c3)nc3ccccc23)n[nH]c1=S | 1.56% |
| OCCC1CN(Cc2cccn2-c2ncccn2)CCN1CCc1ccccc1 (stereo not drawn) | -68.2% |
| O=C(NNC(=O)c1cccs1)c1ccc(F)cc1 | 26% |
| COC(=O)c1nnn(-c2ccccc2)c1N | -7.91% |
| O=C(c1cccc([N+](=O)[O-])c1)N1CCOCC1 | 11.7% |

| SMILES | hERG current change (%, negative = inhibition) at 10uM |
| --- | --- |
| CCOC(=O)N1CCN(Cc2nc3c(c(=O)[nH]c(=O)n3C)n2Cc2cc(C)ccc2C)CC1 | -17.6% |
| CC1(C(=O)NC(=S)N(CCC#N)c2ccccc2)CC1(Cl)Cl (stereo not drawn) | -5.35% |
| CN(Cc1ccccc1)C(=O)c1ccccc1NC(=O)C1CC1 | -5.76% |
| C[C@@H](CN1C2=NC[C@H](Cc3ccc(O)cc3)N2C[C@H]1Cc1ccc(O)cc1)NC(=O)CCC1CCCCC1 | -10.3% |
| O=C(c1cnn2c(C(F)F)cc(-c3ccccc3)nc12)N1CCc2ccccc2C1 | -15.6% |
| COc1ccc(N2CCN(C(=O)CSc3nnc4ncccn34)CC2)cc1 | -6.38% |
| O=C(CCCNS(=O)(=O)c1ccc(F)cc1)Nc1ccc(F)cc1 | 3.97% |
| COc1ccc(N2C(=O)CC(N3CCC(O)(c4ccc(Br)cc4)CC3)C2=O)cc1 (stereo not drawn) | -29.6% |
| Cn1ccnc1SCC(=O)N(C1CCCCC1)C1CCCCC1 | 3.29% |
| CCOc1ccc(-n2cc(C(=O)N3CCCCCC3)c3cc(OC)c(OC)cc3c2=O)cc1 | -9.18% |
| Cc1ccc2nc(CCl)[n+]([O-])c(-c3ccccc3)c2c1 | 1.16% |
| Cn1cccc1Cc1nnc(SCC(=O)Nc2cccc(F)c2)n1-c1ccc(F)cc1 | -24.7% |
| CCC(C)C(NC(=O)C(C)NC(=O)CNC(=O)OC(C)(C)C)C(N)=O (stereo not drawn) (Boc-Gly-Ala-Ile-NH2; configuration not given here) | 22.6% |
| Cc1ccc(N=C2SC(C(=O)O)CC(=O)N2C)cc1C (stereo not drawn) | 11.8% |
| CC1CCc2c(sc3nn[nH]c(=O)c23)C1 (stereo not drawn) | -12.4% |
| CC(NC(=O)/C(=C\c1cccc([N+](=O)[O-])c1)NC(=O)c1ccco1)C(=O)O (stereo not drawn) | 39.2% |
| COc1ccc(CNC(=O)Cn2nc(C(F)(F)F)c(Br)c2C)cc1 | -1.49% |
| NS(=O)(=O)c1ccc(CNC(=O)c2cc(-c3cccnc3)nc3ccc(Br)cc23)cc1 | 14.6% |
| NC(=O)Cn1c(=O)n(Cc2ccccc2)c(=O)c2cccnc21 | 8.29% |
| O=C(COC(=O)c1ccc(S(=O)(=O)N2CCOCC2)cc1)Nc1ccccc1F | -4.7% |
| Cc1cc(C)n2nc(SCc3c(F)cccc3Cl)nc2n1 | -5.21% |

— article PMC4336329 (PLoS ONE, 2015)
